The BET-seq Pho4 binding data (Le et al. 2018)
The list shows a part of the results. These are noisy estimates, calculated here from bound and input reads.

Target: T1, Pho4 (S. cerevisiae) (UniProt P07270)
T1 sequence: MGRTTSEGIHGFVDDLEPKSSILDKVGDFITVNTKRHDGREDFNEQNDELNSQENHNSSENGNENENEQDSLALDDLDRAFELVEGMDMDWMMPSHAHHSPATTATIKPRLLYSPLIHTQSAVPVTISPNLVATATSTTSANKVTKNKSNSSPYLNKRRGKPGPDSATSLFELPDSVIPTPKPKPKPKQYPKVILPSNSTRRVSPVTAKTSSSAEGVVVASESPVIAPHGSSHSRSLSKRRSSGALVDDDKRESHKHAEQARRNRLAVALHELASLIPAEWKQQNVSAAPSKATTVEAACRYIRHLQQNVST
Assay: relative binding free energy (BET-seq); higher = weaker binding
Settings: reference: library average

Relative binding free energy, -0.2 kcal/mol:
AGTAGCACGTGGCCGG

Relative binding free energy, -0.13 kcal/mol:
CGGAGCACGTGTGTGT, ACAGACACGTGGGGGT, ATAAGCACGTGGGAGT

Relative binding free energy, 0.36 kcal/mol:
TTCATCACGTGAGGTG, GTTCTCACGTGAGAGG

Relative binding free energy, -0.22 kcal/mol:
AGGCGCACGTGGCGGA, AGGCACACGTGGGGGC

Relative binding free energy, -0.08 kcal/mol:
ATGAGCACGTGGATGA

Relative binding free energy, 0.3 kcal/mol:
AGTTTCACGTGTAGAT, TTGTTCACGTGATTGC, GAGTTCACGTGGTAGA, AGGGACACGTGAAGTT, GTTTTCACGTGGACTG

Relative binding free energy, 0.4 kcal/mol:
CAGTTCACGTGTGTTA

Relative binding free energy, 0.18 kcal/mol:
AGTCGCACGTGAGGTG, TTCATCACGTGTGGAT

Relative binding free energy, 0.01 kcal/mol:
AAGGGCACGTGGTCCG, TTTGACACGTGGGGCC, TGAGGCACGTGATAAT, GGTCACACGTGGGCGT, GTTTGCACGTGGTGAG, AAATGCACGTGGAGTC, TTGAGCACGTGTTAAA, AAAGGCACGTGATTGG

Relative binding free energy, 0.17 kcal/mol:
TTGATCACGTGCGTGC, TTCTGCACGTGTGAAG, CCATTCACGTGGGGGG, AATAACACGTGTGAGG, ATTCACACGTGAGTGG, CTGATCACGTGTGGCT

Relative binding free energy, 0.31 kcal/mol:
TTTATCACGTGAGCAT, ATGTTCACGTGCGTTA

Relative binding free energy, 0.23 kcal/mol:
AATTGCACGTGAATAT, GATGTCACGTGTGTTT, TTGGACACGTGAAAGG, GATTCCACGTGTGGGA

Relative binding free energy, 0.15 kcal/mol:
TTCGTCACGTGTTGTA, AGAGTCACGTGTAGGA, GCGGTCACGTGTCGGG, GTGGACACGTGGTGAT, AGGGTCACGTGGATAG, TGGGTCACGTGGATGG

Relative binding free energy, 0.06 kcal/mol:
ATGGTCACGTGTTGCA, AGTAACACGTGTATTG, GGTGACACGTGTCGGG, ATTATCACGTGCGTGG, GGCCACACGTGGTGTT, AGTTACACGTGTGAAG

Relative binding free energy, 0.19 kcal/mol:
TGGCTCACGTGTATCG, AGGCTCACGTGTGTAT, GGATTCACGTGCGTGA, ATTATCACGTGCGATT, GTCATCACGTGTATAG

Relative binding free energy, -0.03 kcal/mol:
TGGAACACGTGGTCGA, AAGGGCACGTGGAGTT, TTCAGCACGTGGTGGC, TAGTGCACGTGGGAGA

Relative binding free energy, -0.14 kcal/mol:
TTGTGCACGTGCGGTA, TGTCACACGTGGGCGT, GTCGCCACGTGGCGGG, TTTAGCACGTGGGGTT

Relative binding free energy, -0.3 kcal/mol:
TGCCCCACGTGGGGTG, CGGGGCACGTGCTGTG

Relative binding free energy, 0.13 kcal/mol:
AAGCACACGTGGGAGG, AGTTGCACGTGTGGTC, TAAGTCACGTGTACGG

Relative binding free energy, -0.1 kcal/mol:
GTCGGCACGTGGCGGC, GTGAGCACGTGTTGAA, TCTAACACGTGTTTGT

Relative binding free energy, 0.25 kcal/mol:
GTCATCACGTGTGGCT, GGATTCACGTGCTTGT, AGTTGCACGTGAGCGA, TATTTCACGTGGGCTT, TTTCTCACGTGTATTG

Relative binding free energy, 0.43 kcal/mol:
CTTTTCACGTGTCGTT

Relative binding free energy, 0.05 kcal/mol:
TGAAACACGTGTGAGG, TATTGCACGTGATCGT, ATGGTCACGTGGGACA, AATTGCACGTGGGAAG

Relative binding free energy, 0.03 kcal/mol:
GTCAGCACGTGTGGGT, TGTGACACGTGTTTGT, TGACTCACGTGGTGGA, ATTTACACGTGGTGTT, TTCAGCACGTGACGGT

Relative binding free energy, -0.02 kcal/mol:
AAATACACGTGGTAGT, TGTGCCACGTGTTTTT, TGATCCACGTGGTGAG, ATGTGCACGTGCGATT, TTCAGCACGTGGAGTG

Relative binding free energy, 0.29 kcal/mol:
ATGAACACGTGAGTAT

Relative binding free energy, 0.24 kcal/mol:
GTGGTCACGTGGTAAT, ACATTCACGTGGTTGG, GGGCACACGTGATGGG

Relative binding free energy, 0.21 kcal/mol:
TCTGTCACGTGTTGCG, GTATTCACGTGGCGAG

Relative binding free energy, -0.18 kcal/mol:
AACGGCACGTGGTGTA, TTAAGCACGTGTTTGC, TGCGGCACGTGGCAGT, CGGTCCACGTGGGTGT

Relative binding free energy, 0.12 kcal/mol:
GGCAGCACGTGTGCTT, ACTTGCACGTGTAAGG, ATGGTCACGTGGATAT, GGTGTCACGTGCAGTG, AGTATCACGTGTCGGC, GGGGACACGTGTGGCC

Relative binding free energy, 0.04 kcal/mol:
GACGGCACGTGGAGGG, GGCGGCACGTGTATGT, TTTGACACGTGTGGCG, TTCTACACGTGGTAGG, TGGTCCACGTGTTTGC, AGTTGCACGTGTTATC

Relative binding free energy, -0.04 kcal/mol:
TTGGCCACGTGCGTTA, TATGGCACGTGTCGGG

Relative binding free energy, -0.09 kcal/mol:
GTTGACACGTGCGGTG, TGGGTCACGTGCGCGG, AGGTACACGTGGCTTT, AGGGACACGTGGCAGG

Relative binding free energy, -0.27 kcal/mol:
TTTGGCACGTGGCAGC

Relative binding free energy, -0.23 kcal/mol:
TTCAGCACGTGGGATA, CTTGGCACGTGGGCGG, AGCGGCACGTGCTGTT

Relative binding free energy, -0.24 kcal/mol:
CCGGGCACGTGCGTGT

Relative binding free energy, -0.12 kcal/mol:
CGTAACACGTGTGTTG

Relative binding free energy, 0.1 kcal/mol:
GTCGTCACGTGCTGTA, TGCGGCACGTGAGGTA, ACGTTCACGTGTATGG, GTCTACACGTGGGTTA

Relative binding free energy, 0.14 kcal/mol:
AATGTCACGTGTTAGT, GGTAACACGTGAATGG, ATGGCCACGTGAGTTT, TAGATCACGTGGTTTG, ATGTACACGTGATGTT, ACGATCACGTGTTAGG

Relative binding free energy, 0.08 kcal/mol:
AGATACACGTGTTAGT, AATTGCACGTGTTTGT, GGGTCCACGTGTTCTG, TGATGCACGTGTCGTC, GAGAACACGTGTTGGG, TTGCACACGTGTGTTC, TCAGTCACGTGTGGGG, TGGTGCACGTGACCGT

Relative binding free energy, 0.11 kcal/mol:
TTGATCACGTGGTTAA, ATCATCACGTGGGAGG, TATTCCACGTGATGTA, TGTGTCACGTGCACGA, TACGACACGTGTGGGA

Relative binding free energy, -0.11 kcal/mol:
AAAGACACGTGTTGTG, AATTGCACGTGGTAGT, TGCTGCACGTGGGTGA

Relative binding free energy, 0.2 kcal/mol:
TGTAGCACGTGAAGTT

Relative binding free energy, -0.01 kcal/mol:
AGTTGCACGTGTACTG, AACGTCACGTGGGTGA

Relative binding free energy, 0.41 kcal/mol:
GATAACACGTGAAGGG

Relative binding free energy, -0.21 kcal/mol:
CGCGGCACGTGTTTGG, CTTTGCACGTGGGCGA

Relative binding free energy, 0.5 kcal/mol:
TAGTTCACGTGAAGTC

Relative binding free energy, -0.25 kcal/mol:
TAGGCCACGTGGTGAT

Relative binding free energy, -0.15 kcal/mol:
GTGGGCACGTGCGGGC, GTTAGCACGTGCGTAT, TAGTGCACGTGGGAGT

Relative binding free energy, -0.17 kcal/mol:
TTGGGCACGTGCTGGT, CGTTGCACGTGCGTTG

Relative binding free energy, -0.33 kcal/mol:
GTGGGCACGTGGCATA, CACGGCACGTGGGGTA

Relative binding free energy, 0.27 kcal/mol:
GGTTTCACGTGGCTAG, CGGCTCACGTGGAAGG, GAGGTCACGTGAGGGT, TGTGTCACGTGATGAT

Relative binding free energy, 0.39 kcal/mol:
GTTATCACGTGAAGGG

Relative binding free energy, 0 kcal/mol:
TAGAGCACGTGTGAGG, GGTAGCACGTGGAGTT, TTGTCCACGTGGTGAG, TGCGTCACGTGCGGTG

Relative binding free energy, 0.32 kcal/mol:
AGGTTCACGTGATTTA, GTGTTCACGTGTGGTA

Relative binding free energy, 0.09 kcal/mol:
GGTCACACGTGTGGCT, TGTCACACGTGTATAT, GTGGTCACGTGGTGTT, AGTTTCACGTGCTTAT

Relative binding free energy, 0.16 kcal/mol:
TTAAACACGTGATAGG, GTGAACACGTGTCGGA, ATAGTCACGTGTTGGA

Relative binding free energy, -0.06 kcal/mol:
GCATGCACGTGGTGAG, GTGAACACGTGGAGGA, TGGACCACGTGCTGGG, TATGACACGTGTGTTA, TTTTGCACGTGCGTTA

Relative binding free energy, 0.28 kcal/mol:
AGGCTCACGTGATGTG, AGTGTCACGTGACAGA, GTAGTCACGTGTCTGG

Relative binding free energy, 0.22 kcal/mol:
CAGGTCACGTGAGTTT, GGATGCACGTGTTCAT, GATATCACGTGTAGGA

Relative binding free energy, -0.07 kcal/mol:
AGAGTCACGTGTTAAG, CTCGGCACGTGGTGGG, GTGAGCACGTGTTAGT, TGGTGCACGTGGACGA, GCGATCACGTGGGTGT, TACGTCACGTGGGGCA, GTCGGCACGTGCAGTT, AGTTGCACGTGCTCGT, TTTGCCACGTGACGGT, TGTCCCACGTGTTTGG, AGGGCCACGTGTTGTA, TGCGGCACGTGTTACT

Relative binding free energy, -0.26 kcal/mol:
ATAGGCACGTGGGCGT, GGGGGCACGTGCCAGG

Relative binding free energy, 0.07 kcal/mol:
AAGTGCACGTGTAGGG, TCAGTCACGTGTCTGT, AGGTACACGTGCGGGC, TTGTACACGTGGAGCG, TTAATCACGTGCTGTA

Relative binding free energy, -0.19 kcal/mol:
CTTAGCACGTGGTGGG, GGTGCCACGTGGGTTT

Relative binding free energy, 0.02 kcal/mol:
GTAGCCACGTGTGGCG, GATGGCACGTGTGGTC

Relative binding free energy, 0.26 kcal/mol:
GGTTTCACGTGGGCCG, GGGTACACGTGAGTTT, GGTCTCACGTGGAGTG, TATTTCACGTGATCGA

Relative binding free energy, 0.38 kcal/mol:
TTTGACACGTGAAGCG

Relative binding free energy, 0.34 kcal/mol:
TTTTTCACGTGAGCAT

Relative binding free energy, -0.05 kcal/mol:
CTGGGCACGTGTAGTG, AAGGTCACGTGGGGCC, ACTGGCACGTGATGTG, AGGGACACGTGGGCAG, CTTAACACGTGTGTGT, AATGTCACGTGCGTAT, TTAATCACGTGCTGTT
